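A five-concentration, 48-hour dose response in 96-well plates underlies each endpoint, interpolated linearly between surrounding concentrations. At the GI50, growth is halved.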 Active and inactive are the calls of the source. No stated cut-off is given here; in the data, active = GI50 up to about 1.1 µM and inactive = higher. Peptide text beside a SMILES is read from it. * marks the point of attachment. Fmoc = O=C(OCC1c2ccccc2-c2ccccc21)*; OBn = c1ccc(CO*)cc1; tBu = CC(C)(C)*
Test system: NCI-H322M
Test: inhibition of tumour cell growth, NCI panel, 48 h

Structure (SMILES) | GI50
COc1ccc(C=O)cc1Oc1ccc(C[C@H]2c3c(cc(OC)c4c3Oc3cc5c(cc3O4)CCN(C)C5=O)CCN2C)cc1 | inactive: 8.34 µM
O=C1NC2C=CN(Cc3ccccc3)C=C2C(=O)N2CCCC12 (configuration not stated) | inactive: > 100 µM
Nc1nc(N)c2cc(-c3ccccc3)cnc2n1 | inactive: 19.7 µM
O=C1CCN(CCC(F)(F)C(F)(F)C(F)(F)C(F)(F)F)C(=S)N1 | inactive: > 100 µM
COc1ccc(/C=C2\CCCCC2=O)cc1 | inactive: > 100 µM
CC(C)(O)[C@@H]1CCC(C)([C@H]2[C@@H](O)CC3(C)C4CC(OC5OC(CO)C(O)C(O)C5O)C5C(C)(C)[C@@H](OC6OCC(O)C(O)C6O)CC[C@@]56C[C@@]46CC[C@]23C)O1 (some centres not stated) | inactive: > 100 µM
Cc1cc2c(c(S(=O)(=O)c3ccc(Cl)cc3[N+](=O)[O-])c1)NCCC2 | inactive: > 100 µM
N#CCCN(CCC#N)c1ccc(/C=C2\SC(=S)NC2=O)cc1Br | inactive: > 100 µM
O=C(OCc1ccccc1)N1CCCc2c(n(S(=O)(=O)c3ccccc3)c3ccccc23)C1 | inactive: > 100 µM
Cc1cc(N(CCOS(C)(=O)=O)CCOS(C)(=O)=O)ccc1/C=N/c1ccc(-c2nc(Cc3ccccc3)sc2C)cc1 | inactive: 4.95 µM
C[C@]12CC[C@H]3[C@@H](CCC4=CC(=O)C=C[C@@]43OC(=O)C(F)(F)F)[C@@H]1CCC2=O | inactive: > 100 µM
CC1(C)CCC(C)(C)c2cc(C(=O)Nc3ccc(C(=O)O)cc3)ccc21 | inactive: 33.9 µM
O=C(O/N=C1/CCC/C1=C\c1ccccc1)c1ccc([N+](=O)[O-])cc1 | inactive: > 100 µM
CC(C)(C)OC(=O)NC1CC=CCC1NC(=O)OC(C)(C)C (configuration not stated) | inactive: > 100 µM
N[C@H]1c2c(Br)sc(Br)c2C(=O)[C@H]1O | inactive: 19.5 µM
CN(C)CCOc1ccc(-c2c(Oc3ccccc3)c(=O)oc3ccccc23)cc1 | inactive: 5.87 µM
CC(C)c1ccc(O)c(=O)cc1 [GAMMA-THUJAPLICIN] | inactive: 9.4 µM
O=C(CCCc1ccccn1)c1ccccc1 | inactive: > 100 µM
CC(=O)c1ccc(Nc2c3c(nc4ccccc24)CCCC3)cc1 | inactive: 27.9 µM
CC(=O)Nc1ccc(C(=O)NN2C(=O)C(Cl)C2c2ccccc2O)cc1 (configuration not stated) | inactive: 26 µM
O=c1oc2c/c(=C\c3ccc([N+](=O)[O-])cc3)c(=O)c3cccc1c3-2 | inactive: > 100 µM
COc1cc(OC)c2nc(C)c3c(c2c1)NCC3 | inactive: 6.07 µM

Structure (SMILES) | GI50
CCOC(=O)Cc1nc2cc(F)c(F)cc2[nH]c1=O | inactive: > 100 µM
CC(=O)OCC1OC(n2c(=O)[nH]c(=O)c3sccc32)C(Br)C1OC(C)=O (configuration not stated) | inactive: > 100 µM
COc1cc2nc(-c3c(F)cccc3F)n(Cc3c(F)cccc3F)c2cc1Cc1c(F)cccc1F | inactive: > 100 µM
O=C(CSCC(=O)N/N=C\c1ccc(-c2ccccc2)cc1)N/N=C\c1ccc(-c2ccccc2)cc1 | inactive: 22.8 µM
SCCSCCCSCCS | inactive: > 100 µM
NS(=O)(=O)c1nnc(NS(=O)(=O)c2ccccc2[N+](=O)[O-])s1 | inactive: > 100 µM
CCC1=CCC(P(=O)(c2ccccc2)c2ccccc2)CC1C (configuration not stated) | inactive: 62.1 µM
Cc1cc(NS(=O)(=O)c2ccc(NC(=O)c3cccc4c(Nc5ccc(S(=O)(=O)Nc6cc(C)on6)cc5)c5ccc(Cl)cc5nc34)cc2)no1 | inactive: 60.5 µM
O=C1/C(=N/c2ccccc2)Oc2cc(O)ccc21 | inactive: > 100 µM
O=[As](O)(O)c1cc(/N=N/c2ccc(-c3ccc(/N=N/c4cc([As](=O)(O)O)c(O)cc4O)cc3)cc2)c(O)cc1O | inactive: > 83.2 µM
CCC1=C(C[C@H]2NCCc3cc(OC)c(OC)cc32)C[C@H]2c3cc(OC)c(OC)cc3CCN2C1 | active: 0.0319 µM
C/C=C/[C@@H]1[C@H]2C(=O)[C@]3(Cl)[C@@H](/C=C/C)[C@@H]3C(=O)[C@@]12Cl | inactive: > 100 µM
C=C1C(=O)OC2(C)C3CCC(C3)C12 (configuration not stated) | inactive: 75.3 µM
O=C1C2C3C=CC(C2C(=O)N1CO)C1C2C(=O)N(CO)C(=O)C2C31 (configuration not stated) | inactive: > 100 µM
CCNCC(O)c1ccc(N)c([N+](=O)[O-])c1 (configuration not stated) | inactive: > 100 µM
O=C(O)c1ccc([N+](=O)[O-])c2c(=O)c3ccccc3[nH]c12 | inactive: > 100 µM
CCCCC(C)C1CCC2(C)C=CC(=O)C(C)=C2C1O (configuration not stated) | inactive: > 100 µM
CCOC(=O)C(NC(=O)Nc1ccc(Cl)c(Cl)c1)C(F)(F)F (configuration not stated) | inactive: > 100 µM
CCN(CC)CCNC(=O)c1cc2cc(NC(=O)c3cc4cc(N)ccc4[nH]3)ccc2[nH]1 | inactive: 21.6 µM
CC1(C)O[C@@H]([C@H](O)CO)[C@H](O)[C@@H](C2SCCCS2)O1 | inactive: > 100 µM
CN1C(=O)C2(C=CC(O)CC2)c2ccccc21 (configuration not stated) | inactive: > 100 µM
O=c1[nH]nc(-c2ccccc2)n1/N=C/c1ccc([N+](=O)[O-])cc1 | inactive: 12 µM

Structure (SMILES) | GI50
CC1=C(Cl)C=CP(=O)(OC(C)C)C1 (configuration not stated) | inactive: > 100 µM
CCCO[C@@H]1[C@@H](OC(C)=O)[C@@H](OC(C)=O)C(C)(C)/C=C/[C@H](C)C(=O)[C@@]2(OC(C)=O)C[C@@](C)(OC(C)=O)[C@H](OC(C)=O)[C@@H]2[C@H]2OC(=O)CC[C@@]12OC(=O)c1ccccc1 | inactive: > 25 µM
CC(C)CCn1c(=O)c2c(=O)[nH][nH]c2c2ccccc21 | inactive: > 100 µM
COC(=O)c1ccc(COC(=O)N2C=CCC2C(=O)O)cc1 (configuration not stated) | inactive: > 100 µM
CC(OC(C)(C)C)C(NC(=O)OCC1c2ccccc2-c2ccccc21)C(=O)NC(Cc1ccccc1)C(=O)OCc1ccccc1 (configuration not stated) (Fmoc-Thr(tBu)-Phe-OBn; configuration not given here) | inactive: > 100 µM
O=C(CC1(O)C(=O)Nc2ccccc21)c1ccco1 (configuration not stated) | inactive: > 100 µM
N#C/N=C(/N)NCN/C(N)=N\C#N | inactive: 94 µM
CC(C)(C)OC(=O)C1CC[C@@H](CC(=O)Oc2ccc([N+](=O)[O-])cc2)N1 (some centres not stated) | inactive: > 100 µM
CN1CCS(=O)(=O)NC(Cc2ccccc2)C(=O)N2CCCC2C1=O (configuration not stated) | inactive: > 100 µM
CCC(C)OC(=O)C1C2CCC(O2)C1C(=O)O (configuration not stated) | inactive: > 100 µM
Oc1ccc2c(c1)CCc1c-2n(CCN2CCOCC2)c2ccc(O)cc12 | inactive: 43.6 µM
CC1CC=CC(O)C1 (configuration not stated) | inactive: > 100 µM
O=S(=O)(c1cccc(N=C=S)c1)c1cccc(N=C=S)c1 | inactive: 42.8 µM
COc1cc(/C=C2\CC(C)C/C(=C\c3ccc(O)c(OC)c3)C2=O)ccc1O (configuration not stated) | inactive: 6.18 µM
Cc1cc2c(=O)c3ccccc3oc2c(C#N)c1C | inactive: 84.5 µM
O=C(CCC(=O)c1ccc(Cl)cc1)NO | inactive: > 100 µM
COc1cc2c3c(c1OC)/C(=N/OS(=O)(=O)c1ccc(C)cc1)CC3N(S(=O)(=O)c1ccc(C)cc1)CC2 (configuration not stated) | inactive: > 100 µM
O=C1CC2Sc3ccccc3N=C2N1c1ccc(Cl)cc1Cl (configuration not stated) | inactive: > 100 µM
C/C(=N\Nc1nc2ccccc2[nH]1)c1ncccn1 | active: 0.042 µM
Cc1nc(O)nc2c1C(NCCCN(C)C)c1cc(Cl)ccc1N2 (configuration not stated) | inactive: 15.5 µM
O=C1CCN2CCC(=O)c3c2c(cc2ccccc32)N1 | inactive: > 100 µM
CCOC(=O)C1C=C2O[C@@H]3OC4(CCCCC4)O[C@@H]3C2[C@H]2C(=O)C=CC(=O)[C@@]12C(=O)OC (some centres not stated) | inactive: 17 µM

Structure (SMILES) | GI50
Cc1ccc(S(=O)(=O)N/C(=N\O)Nc2ccc(Cl)c(Cl)c2)cc1 | inactive: 2.12 µM
CCNC1=C(NC(=O)c2ccc(F)cc2)C(=O)c2ccccc2C1=O | inactive: > 100 µM
Cc1nn(-c2ccccc2)c(C)c1/C=N/NC(=O)c1sc(=S)n(-c2ccccc2)c1N | inactive: 3.47 µM
CC(=O)NCC1OC2COC(c3ccccc3)OC2C(NC(=O)c2ccccc2)C1OC(=O)c1ccccc1 (configuration not stated) | inactive: 64.1 µM
COC(=O)c1sc2c(=O)c(C(=O)OC)c(C(=O)OC)sc2c(=O)c1C(=O)OC | inactive: > 100 µM
CC(NP(=O)(c1ccccc1)c1ccccc1)c1ccccc1 (configuration not stated) | inactive: > 100 µM
COc1ccc2ccccc2c1C1OC(=O)c2ccccc21 (configuration not stated) | inactive: > 100 µM
O=c1/c(=C/c2ccc(Cl)cc2Cl)sc2nc3ccccc3n12 | inactive: > 100 µM
CSc1ncc2c(n1)-c1ccccc1OC2N1CCCC1 (configuration not stated) | inactive: > 100 µM
NS(=O)(=O)c1ccc(Nc2c3ccccc3nc3c(C(=O)NC(CO)(CO)CO)cccc23)cc1 | active: 0.151 µM
CCC(C)[C@@H]1NC(=O)[C@@H]2CCCN2C(=O)C(CC(O)CO)OC(=O)CCNC(=O)[C@H](C)N(C)C(=O)[C@H](C(C)C)N(C)C1=O (some centres not stated) (HELM PEPTIDE1{[CCC(C)[C@H](N[*:1])C(=O)[*:2]].[meV].[meA].[bAla].[O=C(C(CC(O)CO)O[*:1])[*:2]].P}$PEPTIDE1,PEPTIDE1,1:R1-6:R2$$$V2.0) | inactive: > 100 µM
CCCC(=O)NC(NC1CCCCC1)(C(=O)OCC)C(F)(F)F (configuration not stated) | inactive: > 100 µM
Cc1ccc(NCC2(/N=C/c3ccccc3)OC(CO)C(O)C2O)cc1 (configuration not stated) | inactive: > 100 µM
CC1=NN(c2nc(N)nc(CSc3nc4n(c(=S)n3)CCN4)n2)C(C)(C)C1 | inactive: 26.2 µM
COc1ccc(N2C(=O)C3c4[nH]c5ccc(OCc6ccccc6)cc5c4C4CCC(C(C)(C)C)CC4C3C2=O)cc1 (configuration not stated) | inactive: > 100 µM
CC1(C)CC(=O)c2c(nc3c(ccc4ccccc43)c2-c2ccc(NC(=O)CCCC(=O)Nc3ccc(-c4c5c(nc6c4ccc4ccccc46)CC(C)(C)CC5=O)cc3)cc2)C1 | inactive: > 100 µM
COc1cc(O)c(/C=N/N=C(\N)NO)c(OC)c1 | inactive: 4.94 µM
NC(=O)c1ccc(C(=O)Nc2ccc([As](=O)(O)O)cc2)cc1 | inactive: > 100 µM
CCOC(=O)c1c(N2CCOCC2)[nH]c(=O)c(C(c2ccc(Cl)c([N+](=O)[O-])c2)c2c(O)c(C(=O)OCC)c(N3CCOCC3)[nH]c2=O)c1O | inactive: > 100 µM
COc1ccc(C2C=C(c3ccc(C)cc3)N(c3ccc(OC)cc3[N+](=O)[O-])C3C(=O)OC(=O)C23)c(OC)c1 (configuration not stated) | inactive: 30.1 µM
COc1ccc(C/C=C(\C)CCO)cc1 | inactive: > 100 µM
